# Measured values reported in PubChem BioAssay AID1468 (National Center for Advancing Translational Sciences (NCATS), 2008).
# In all, about 280,000 compounds went through this assay and about 1,100 (0.39%) were called active. Inconclusive results, whose numbers are uncertain, are shown with a selection of clear calls. The call rests on the fitted dose curve; in most records, active means well fitted inhibition curve with a large enough effect; inconclusive means small, poorly fitted or top-dose-only effect, or effect the other way; inactive means flat fitted curve, though single readings scatter. Potencies of inconclusive entries are left out as doubtful fits.
# Target: Microtubule-associated protein tau (Homo sapiens) (UniProt P10636)
# Sequence of UniProt P10636 (P10636 whole entry, looked up): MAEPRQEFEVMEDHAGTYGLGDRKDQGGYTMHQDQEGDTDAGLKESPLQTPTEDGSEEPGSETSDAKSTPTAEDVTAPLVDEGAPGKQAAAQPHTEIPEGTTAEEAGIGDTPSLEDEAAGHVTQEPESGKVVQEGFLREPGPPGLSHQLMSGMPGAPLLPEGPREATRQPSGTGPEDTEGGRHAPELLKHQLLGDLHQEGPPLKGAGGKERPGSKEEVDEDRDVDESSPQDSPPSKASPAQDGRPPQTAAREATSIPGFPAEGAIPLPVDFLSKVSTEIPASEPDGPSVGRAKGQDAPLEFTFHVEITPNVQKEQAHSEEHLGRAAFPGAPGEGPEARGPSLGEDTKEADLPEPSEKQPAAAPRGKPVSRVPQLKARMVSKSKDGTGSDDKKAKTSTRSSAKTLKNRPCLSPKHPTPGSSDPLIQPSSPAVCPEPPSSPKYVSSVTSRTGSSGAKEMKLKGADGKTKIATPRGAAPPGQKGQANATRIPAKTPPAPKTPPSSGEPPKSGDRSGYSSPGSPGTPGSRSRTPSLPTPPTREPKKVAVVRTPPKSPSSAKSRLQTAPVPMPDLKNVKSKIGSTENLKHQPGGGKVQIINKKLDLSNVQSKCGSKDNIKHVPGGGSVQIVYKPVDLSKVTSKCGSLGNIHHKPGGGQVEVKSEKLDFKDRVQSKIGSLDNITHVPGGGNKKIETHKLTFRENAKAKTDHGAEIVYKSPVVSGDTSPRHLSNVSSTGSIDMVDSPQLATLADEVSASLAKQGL
# Experiment: qHTS for Inhibitors of Tau Fibril Formation, Fluorescence Polarization; further: nearly all actives have a fitted effect of over 55% in size
# Details: K18 P301L tau heparin fibrillization, Alexa594 FP, 6 h; series mostly up to 57.7 µM
# Procedure, shortened: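 Quantitative HTS format: compounds meet 15 uM recombinant K18 P301L tau and Alexa 594-tau tracer in 100 mM sodium acetate pH 7; 20 uM heparin triggers fibrillization at 37 C over 6 hr; FP gives the signal.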
# Potency means the concentration at half of the fitted maximal effect; tags describe the fitted curve by direction and shape.
row,SMILES,Potency
1,N#Cc1c(N)nc2c(c1-c1ccc3c(c1)OCO3)CCCCCC2,inactive
2,CC1(OC(=O)C2CCCC2)C(=O)C=C2C=C(c3ccsc3)OC=C2C1=O (configuration not stated),"inconclusive [inhibitor, single point]"
3,Cc1cccc(CSc2cn(CC(=O)N3CCOCC3)c3ccccc23)c1,"inconclusive [inhibitor, single point]"
4,O=C(Cn1ncc2c3ccccc3n(Cc3ccccc3)c2c1=O)NCCc1ccc(Cl)cc1,"inconclusive [inhibitor, single point]"
5,Cc1ccc(NS(=O)(=O)c2cc(C(=O)NCCSC3CCCCC3)ccc2C)cc1,"inconclusive [inhibitor, partial curve]"
6,CCCOc1ccc(N2C(=O)CC(SCCc3nc4ccccc4[nH]3)C2=O)cc1 (configuration not stated),inactive
7,c1ccc(-c2cn3nc(-c4ccccc4)cnc3n2)cc1,inactive
8,CC(=O)N1CCCc2ccc(NC(=O)c3ccc(OC(C)C)cc3)cc21,inactive
9,Cc1ccc2nc(COc3ccccc3NC(=O)Nc3ccc(F)c(Cl)c3)cc(=O)n2c1,"inconclusive [inhibitor, full curve]"
10,CCOC(=O)C1(C)C=C(Nc2ccc(OCC)cc2)C(=O)N1c1ccccc1 (configuration not stated),"inconclusive [activator, partial curve]"
11,COc1ccc(S(=O)(=O)c2c(Nc3cccc(Cl)c3)sc(C(=O)c3ccccc3)c2N)cc1,"inconclusive [inhibitor, partial curve]"
12,COc1ccc(/C=C/c2nc(C#N)c(N3CCCCC3)o2)cc1OC,"inconclusive [activator, full curve, poor fit]"
13,CCn1c(SCC(=O)OC(C)C)nnc1-c1ccccc1OC,inactive
14,O=C(CCC(=O)c1ccc(Br)cc1)Nc1cccc(C(F)(F)F)c1,"inconclusive [inhibitor, single point]"
15,O=C(/C=C/c1ccc(F)cc1)Nc1cccc(S(=O)(=O)Nc2cccc(C(F)(F)F)c2)c1,"inconclusive [inhibitor, partial curve]"
16,C=C(C)CC1N(c2cccc(OC)c2)C(=O)[C@@H]2C(C(=O)O)[C@H]3C=C[C@@]12O3 (some centres not stated),"inconclusive [inhibitor, single point]"
17,Cc1nn2c(N3CCCC3)c3c(nc2c1-c1ccccc1)CCC3,"inconclusive [inhibitor, full curve, poor fit]"
18,Cc1nn(C)c(Sc2ccccc2N)c1[N+](=O)[O-],"inconclusive [inhibitor, partial curve]"
19,CSc1nn(Cc2ccc(F)cc2)c(N(C(C)=O)C(C)=O)c1S(=O)(=O)c1ccccc1,"inconclusive [inhibitor, partial curve]"
20,Cc1ccc(-c2csc(NC(=O)c3ccc(S(=O)(=O)N4CCc5ccccc54)cc3)n2)cc1,"inconclusive [inhibitor, partial curve]"
21,O=C(CSc1nnc(SCc2cccc3ccccc23)s1)N=Nc1c(O)[nH]c2ccccc12,"inconclusive [inhibitor, partial curve]"
22,Cc1nc(-c2ccc(Cl)cc2)sc1CCNC(=O)C(=O)Nc1ccc2c(c1)OCO2,inactive
23,COc1ccc(CNC(=O)C(=O)NCC(c2ccco2)S(=O)(=O)c2ccc(Cl)cc2)cc1 (configuration not stated),"inconclusive [inhibitor, single point]"

row,SMILES,Potency
1,CCOC(=O)c1cccc(NC(=O)Cn2ncc3c(=O)oc4ccccc4c32)c1,inactive
2,CCOc1ccccc1Nc1sc(C(=O)c2ccccc2)c(N)c1C(=O)Nc1ccc(F)cc1,"inconclusive [inhibitor, single point]"
3,COC(=O)c1ccc(CSc2ncnc3c2nnn3-c2ccc(F)cc2)o1,"inconclusive [inhibitor, partial curve, poor fit]"
4,CCCCCCCc1ccc(-c2ccc(O)cc2)nc1,"inconclusive [inhibitor, partial curve]"
5,CCc1ccc(NC(=O)Cn2nnc(-c3ccccc3N)n2)cc1,inactive
6,Cc1cccc(N2CCN(c3ccc4cc(S(=O)(=O)N5CCC(C)CC5)ccc4n3)CC2)c1C,inactive
7,Cc1nn(CCc2nc(-c3ccco3)cs2)c2[nH]c(=O)cc(C(F)(F)F)c12,"inconclusive [inhibitor, single point]"
8,Cc1cc(N(CCO)CCO)ccc1N=Nc1cc(F)ccc1F,inactive
9,Cc1cccc(C)c1NC(=O)C1CCCN1S(=O)(=O)c1ccccc1 (configuration not stated),inactive
10,COc1ccc(Nc2nc(-c3cccc([N+](=O)[O-])c3)nc3ccccc23)cc1,"inconclusive [activator, single point]"
11,N#CC(C#N)=C1C=C2C=C(N3CCCCCC3)CCC2CC1 (configuration not stated),inactive
12,Cc1ccc2c(CC(=O)Nc3ccc(S(=O)(=O)N4CCCCC4C)cc3)coc2c1C (configuration not stated),"inconclusive [inhibitor, partial curve]"
13,CC(C)C[C@H](NC(=O)c1nc[nH]c1C(=O)NC(c1ccccc1)c1ccccc1)C(=O)OCc1ccccc1,"inconclusive [inhibitor, single point]"
14,Cc1nn(CCCC(=O)NCc2ccccc2Br)c(=O)c2c1sc1ccccc12,"inconclusive [inhibitor, partial curve]"
15,COc1ccc(/C=C2\SC(c3ccc(C)cc3)=NC2=O)cc1OC,"inconclusive [inhibitor, single point]"
16,Cc1nc(NCc2ccco2)c(C#N)c2c1COC(C)(C)C2,inactive
17,CC[n+]1c(/C=C/N(C)c2ccccc2)oc2ccc(F)cc21,active: 25.1 µM
18,Oc1oc(-c2ccccc2Br)nc1C=Nc1ccc(Br)cn1,"inconclusive [inhibitor, partial curve]"
19,COc1ccc(Br)cc1CNC(=O)c1cc(=O)[nH]c2ccc(S(=O)(=O)N3CCCCC3C)cc12 (configuration not stated),"inconclusive [inhibitor, partial curve]"
20,COc1ccc(N2C(=O)CS(=O)(=O)C23C(=O)N(Cc2ccccc2F)c2ccccc23)cc1Cl (configuration not stated),"inconclusive [inhibitor, single point]"
21,CC(NC(=O)COC(=O)c1cn(-c2ccccc2)nc1-c1cccs1)c1ccccc1 (configuration not stated),"inconclusive [inhibitor, single point]"
22,O=C1c2ccc([N+](=O)[O-])cc2C(=O)N1c1ccc(Cl)cn1,"inconclusive [activator, partial curve, poor fit]"
23,COc1cccc([C@H]2Oc3ccc(OC)cc3/C(=N\O[C@@H]3O[C@H](COC(C)=O)[C@H](OC(C)=O)[C@H](OC(C)=O)[C@H]3OC(C)=O)[C@@H]2O)c1,"inconclusive [inhibitor, single point]"

row,SMILES,Potency
1,CC(=O)N1CCc2[nH]c3ccccc3c2C1,"inconclusive [inhibitor, single point]"
2,O=C(O)c1cc(-c2ccc(/C=C3\NC(=O)N(c4ccccc4)C3=O)o2)ccc1Cl,inactive
3,COc1ccc2nc(NC(=O)CSc3ccccc3)sc2c1,"inconclusive [inhibitor, single point]"
4,COc1ccc(OC)c(CNC(=O)c2c(C)oc3ncn(CC(C)C)c(=O)c23)c1,inactive
5,CC1=Nc2ccccc2/C1=C\c1nc(-c2ccc(F)cc2)oc1O,"inconclusive [activator, partial curve]"
6,Cc1ccccc1C(=O)Nc1ccc(S(=O)(=O)N2CCC(c3nc4ccccc4s3)CC2)cc1,inactive
7,CCOC(=O)C1CN(C(C)(C)C)C(=O)C1=O (configuration not stated),"inconclusive [inhibitor, full curve, poor fit]"
8,Cc1sc(-n2c(C)cc(/C=N/n3cnnc3)c2C)c(C#N)c1C,inactive
9,COc1ccc2cccc(N3CCN(CCNC(=O)c4ccc(F)cc4)CC3)c2c1,"inconclusive [activator, partial curve, poor fit]"
10,CC(=O)c1ccc(NC(=O)Cn2c(=O)cc(C)c3c(C)nn(-c4cccc(F)c4)c32)cc1,"inconclusive [inhibitor, partial curve, poor fit]"
11,COc1ccc(-c2nc(NC(C)=O)sc2-c2ccc(OC)cc2)cc1,inactive
12,Cc1cccc(NC(=O)Cn2cc(S(=O)(=O)N3CCCC3)c(S(=O)(=O)N3CCCC3)c2)c1C,inactive
13,COCCNC(=S)Nc1ccc2nc(N3CCCC3)cc(C)c2c1,inactive
14,CCC1CCc2nc3sc(C(=O)Nc4cccc(F)c4)c(N)c3cc2C1 (configuration not stated),inactive
15,C(=N\Nc1ccccc1)/c1nc2ccccc2s1,"inconclusive [activator, full curve, poor fit]"
16,CNC(=O)c1ccc(-c2ccc(Cl)c(Cl)c2)s1,"inconclusive [inhibitor, single point]"
17,O=C(C1CCCN(S(=O)(=O)c2ccccc2[N+](=O)[O-])C1)N1CCN(c2ccccc2)CC1 (configuration not stated),"inconclusive [inhibitor, single point]"
18,Cc1cc2cc(CNC(=O)c3cccc([N+](=O)[O-])c3)ccc2n1C,"inconclusive [activator, partial curve]"
19,Cc1ccc(NC(=O)Nc2nnc(SCC(=O)N(C(C)C)C(C)C)s2)cc1,"inconclusive [inhibitor, partial curve]"
20,Cc1noc(NS(=O)(=O)c2ccc(NC(=O)CSc3nc4c(cc3C#N)CCCC4)cc2)c1C,inactive
21,CCOC(=O)C1(Cc2cccc(Cl)c2)CCCN(CCO)C1 (configuration not stated),inactive
